Results from PubChem BioAssay AID1347416 (National Center for Advancing Translational Sciences (NCATS), 2020).
Among all 4,100 compounds or so, about 1,600 (39%) were called active. Inconclusive means that the source gave no clear call. Such entries were picked first, then a sample of the others. Calls follow the shape of the dose curve; as a rule, active = well fitted inhibition curve with a large enough effect; inconclusive = small, poorly fitted or top-dose-only effect; inactive = no such curve, though single readings can be large or run the other way. A potency beside an inconclusive call is a rough fit, not a confirmed value.

Assay: qHTS Validation assay for Inhibitors of Plasmodium falciparum Dd2 growth in vitro; also: nearly all actives have a fitted effect of over 70% in size
Settings: P. falciparum Dd2 in RBCs, SYBR Green growth, 72 h; series mostly up to 28.7 µM
In short: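 P. falciparum Dd2-infected red blood cells (2.5% hematocrit, 0.3% parasitemia) grown 72 h at 37 °C under 5% O2 with compounds in a titration, 29 uM to 0.5 nM final. Growth read as SYBR Green-1 fluorescence after ~16 h lysis; artesunate 300 nM as positive control.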
Potency is read from the fitted curve at half-maximal effect; tags tell the direction and shape of the fitted curve.

Row | SMILES | Potency
1 | CCOC(=O)N1CCN(C(=O)c2ccccc2-c2ccccc2)CC1 | inactive
2 | CC(C)CCNC(=O)C1CCN(S(=O)(=O)c2cccc3nsnc23)CC1 | inconclusive: 1.68 µM [inhibitor, partial curve, poor fit]
3 | CCCCc1nc(Cl)c(CN2CCCC(COc3ccccc3C(=O)NC3CC3)C2)[nH]1 (stereo unspecified) | inconclusive: 21.1 µM [inhibitor, single point]
4 | COc1ccc(-c2cc(N3CCCC(NC(=O)c4ccc(C)nc4)C3)n[nH]2)cc1 (stereo unspecified) | inconclusive: 18.8 µM [inhibitor, single point]
5 | COc1ccc(C(=O)NC2CCN(c3cc(-c4ccc(OC)cc4)[nH]n3)CC2)cc1 | inconclusive: 16.8 µM [inhibitor, single point]
6 | CS(=O)(=O)N(C1CC1)C1CCOC2(CCN(C(=O)C3(c4ccccc4)CC3)CC2)C1 (stereo unspecified) | inactive
7 | CCn1ncc(CN2CCCC23CCN(c2cc(C)nc4ccccc24)CC3)c1C | active: 5.31 µM
8 | Cc1onc(C(=O)N2CCC(C)(c3noc(-c4ccncc4)n3)CC2)c1Cn1cc(Cl)cn1 | inconclusive: 8.41 µM [inhibitor, single point]
9 | CCOc1ccc(C(=O)Nc2cc(C)on2)cc1 | inactive
10 | O=C(c1ccoc1)N1CCOc2ccc(CN3CCc4ccccc4C3)cc2C1 | inconclusive: 23.7 µM [inhibitor, single point]
11 | COc1cc(OC)c(NC(=O)N2CCc3cc(S(=O)(=O)N4CCC(C)CC4)ccc32)cc1Cl | inactive
12 | Cc1cc(Nc2ccc(C)c(F)c2)n2ncnc2n1 | inconclusive: 9.44 µM [inhibitor, partial curve]
13 | CCOc1ccc2nc(C)cc(Nc3cccc([N+](=O)[O-])c3)c2c1 | inconclusive: 2.11 µM [inhibitor, full curve, poor fit]
14 | CCc1nc2cc(N3CCC(C(=O)NCc4ccc5c(c4)OCO5)CC3)cnc2nc1CC | inactive
15 | CC(=O)N1CCC(C2CCN(Cc3cc(Cl)ccc3F)C2)CC1 (stereo unspecified) | inactive
16 | CC1(c2ccccc2)N(Cc2ccccc2C#N)C(=O)OC12CCN(C(=O)COc1ccccc1)CC2 (stereo unspecified) | inconclusive: 5.31 µM [inhibitor, partial curve, poor fit]
17 | CCc1nc2c(c(-c3ccc(Cl)cc3)n1)CCN(CC1CCCCC1)CC2 | inactive
18 | CCOc1c(CNCCSc2nnnn2C)cccc1OC | inactive
19 | Cc1ccc(NC(=O)CSc2n[nH]c(-c3ccccn3)n2)cc1 | inactive
20 | CCn1c(N2CCC(C)CC2)nc2c1c(=O)n(C)c(=O)n2C | active: 5.96 µM
21 | CNC(=O)[C@@H]1C[C@H](n2cc(CN(C)C(=O)NCC3CCCCC3)nn2)CN1 | inactive
22 | O=C(c1ccccc1F)N1CCCCCC1c1nnc(-c2ccccc2)o1 (stereo unspecified) | inactive
23 | O=C(N1CCCN(c2cc(-c3ccc(Cl)cc3)[nH]n2)CC1)C1(c2ccccc2)CC1 | inconclusive: 13.3 µM [inhibitor, partial curve, poor fit]

Row | SMILES | Potency
24 | CCc1cccc(C)c1NC(=O)CN1CCN(S(=O)(=O)c2ccc(C(C)(C)C)cc2)CC1 | inconclusive: 8.41 µM [inhibitor, partial curve]
25 | Cc1ccc(OCC(=O)Nc2ccccc2C(=O)OCc2cc(=O)n3ccsc3n2)cc1 | inactive
26 | COc1ccc(N=Cc2c(O)[nH]c3ccccc23)cc1OC | inconclusive: 23.7 µM [inhibitor, single point]
27 | CC(=O)N1Cc2ccccc2CC2(CCN(Cc3ccccn3)CC2)C1 | inactive
28 | COc1ccccc1OCCNC(=O)c1ccc2c(c1)N(C)C1CCCCN1C2=O (stereo unspecified) | inconclusive: 15 µM [inhibitor, partial curve, poor fit]
29 | CCC(=O)N(C1CCOCC1)C1CCN(Cc2cc(F)ccc2F)CC1 | inactive
30 | CCOc1ccc(CC(=O)NC2CCN(c3cc(-c4ccc(OC)cc4)[nH]n3)CC2)cc1 | inconclusive: 16.8 µM [inhibitor, single point]
31 | CCCN1CCC2(CCN([S+](=O)([O-])c3cccc(OC)c3)CC2)Oc2ccccc21 | inconclusive: 21.1 µM [inhibitor, single point]
32 | Cc1ccc(-c2cc(N3CCCN(C(=O)COc4ccc(F)cc4)CC3)n[nH]2)cc1C | inconclusive: 23.7 µM [inhibitor, partial curve, poor fit]
33 | COc1ccc(OC)c(CNC(=O)C2CCN(c3ncnc4c3nc3n4CCCCC3)CC2)c1 | inactive
34 | COc1cccc(-c2cc(C(=O)Nc3ccncc3)c3ccccc3n2)c1 | inconclusive: 6.68 µM [inhibitor, partial curve]
35 | CCOc1ccc(-c2cc3c(=O)n(CCNC(=O)c4cccc5[nH]ccc45)ccn3n2)cc1 | inconclusive: 16.8 µM [inhibitor, single point]
36 | CCCCC1(Cc2ccc(OC)c([N+](=O)[O-])c2)C(=O)N(c2ccccc2)N(c2ccccc2)C1=O | inconclusive: 10.6 µM [inhibitor, partial curve, poor fit]
37 | CC1(C)C[C@H](NCc2ccc(CO)o2)[C@@]2(CCC(=O)NCCN3CCOCC3)CC[C@](C)(O)C[C@@H]12 | inactive
38 | Cc1cccc(Nc2cc(C)c3c(O)cccc3n2)c1C | active: 4.73 µM
39 | CN(C)c1cccc(-c2nccc3c(=O)cc(-c4cn[nH]c4)oc23)c1 | inactive
40 | CN1Cc2ccc(Nc3ccccc3)nc2C(C)(C(=O)NCc2ccc3c(c2)OCO3)C1 (stereo unspecified) | active: 13.7 µM
41 | CCCc1cc(=O)oc2cc(C)cc(OCC(=O)Nc3cccnc3)c12 | active: 0.531 µM
42 | CCOC(=O)c1cccc(NC(=O)CSc2cc(=O)n(C)c3ccccc23)c1 | inactive
43 | CC(C)CCN1CCC2(CC1)CC(=O)N(c1ccccc1)c1ccccc1O2 | inconclusive: 15 µM [inhibitor, partial curve, poor fit]
44 | O=C(c1cc2cn(C3CC3)cc2s1)N1CCc2ccccc2C1 | inconclusive: 5.31 µM [inhibitor, full curve, poor fit]
45 | Cc1nc(C)c(C(=O)N2CC(Oc3ccc(-c4noc(-c5ccccc5)n4)cc3)C2)s1 | inactive
46 | CC(C)S(=O)(=O)N1CCC(N2CC(OCC3CC3)C23CCCCC3)CC1 (stereo unspecified) | inconclusive: 15 µM [inhibitor, partial curve]
